Results reported in PubChem BioAssay AID1508623 (National Center for Advancing Translational Sciences (NCATS), 2021).
Several values for one entry are separate records, joined by “and”; a condition that tells them apart may be missing. Equal entries are not always repeated. Out of some 48,000 compounds screened, about 450 (0.94%) were called active. The inconclusive results got no clear call from the source; some entries with a clear call stand among them for comparison. The call rests on the fitted dose curve; in most records, active means well fitted inhibition curve with a large enough effect; inconclusive means small, poorly fitted or top-dose-only effect; inactive means no such curve, though single readings can be large or run the other way. A potency beside an inconclusive call is a rough fit, not a confirmed value.
Potency means the concentration at half of the fitted maximal effect; tags describe the fitted curve by direction and shape.

Experiment: Primary qHTS for Identification of Small Molecule Inhibitors of Huntingtin Promoter Activity; further: nearly all actives have a fitted effect of over 50% in size
Conditions: HEK293 HTT promoter firefly luciferase reporter (activity 0% = vehicle and -100% = no light), 24 h; series mostly up to 57.5 µM
Summary of the method: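 Firefly luciferase readout (Dual-Glo, 10 min RT) after 24 h, 37 °C compound exposure (final up to 57.5 uM) of HEK293 reporter cells cultured 24 h beforehand; PTC124 at 50 uM final as control inhibitor; activity scaled vehicle 0%, zero RLU -100%.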
For `O=C(Nc1ccc(F)c(Cl)c1)c1cc(S(=O)(=O)NCc2ccc3c(c2)OCO3)ccc1F`, the Potency was inconclusive: 35.5 µM [inhibitor, partial curve, poor fit].
In the case of `CC(NC(=O)CCc1cn(Cc2ccccc2Cl)c2ccccc12)c1ccccc1` (centres undefined), the Potency is reported as inconclusive: 31.6 µM [inhibitor, single point].
With `Cc1ccc(-c2nc(CS(=O)(=O)CC(=O)NC(C)CCc3ccccc3)c(C)o2)cc1` (centres undefined) the Potency was inconclusive: 25.1 µM [inhibitor, single point].
In the case of `CN(C)CCC=C1c2ccccc2COc2ccc(CC(=O)O)cc21`, the Potency is reported as “inactive”.
In the case of `COc1ccc(CCNC(=O)c2cnn(-c3cccc(C)c3)c2C2CCNCC2)cc1OC`, the Potency is reported as “inactive”.
For `COc1ccc(N2CCN(CCCNC(=O)c3nnc(Cc4ccccc4Cl)o3)CC2)cc1`, the Potency was inconclusive: 25.1 µM [inhibitor, single point].
For `FC(F)(F)c1cccc(N2CCN(c3nc4ccccc4n4cnnc34)CC2)c1`, the Potency was inconclusive: 39.8 µM [inhibitor, single point].
With `Cc1ccc(NC(=O)CSc2nnc(-c3cc4occc4n3C)n2-c2ccccc2C)c(C)c1` the Potency was inconclusive: 39.8 µM [inhibitor, partial curve, poor fit].
With `COc1ccc(CNC(=O)C2CCN(C(=O)c3cnn(-c4ccccc4)c3-n3cccc3)CC2)cc1` the Potency was inconclusive: 22.4 µM [inhibitor, partial curve, poor fit].
In the case of `Oc1c(Cl)cc(Cl)c2cccnc12`, the Potency is reported as inconclusive: 39.8 µM [inhibitor, single point] and inconclusive: 38.5 µM [inhibitor, single point].
In the case of `Cc1ccc2c(c1)N(C(=O)Nc1ccc(Br)cc1F)CCO2`, the Potency is reported as “inactive”.
With `Cn1c(COc2ccccc2C(C)(C)C)nc2ccccc21` the Potency was inconclusive: 31.6 µM [inhibitor, single point].
With `COc1ccc(S(=O)(=O)c2cc3cc(C(C)(C)C)cc(O)c3oc2=O)cc1` the Potency was inconclusive: 39.8 µM [inhibitor, partial curve, poor fit].
For `Cc1ccc(C(=O)N2CCN(c3cccc(Cl)c3)CC2)cc1-n1c(C)nc2cccnc21`, the Potency was inconclusive: 14.1 µM [inhibitor, partial curve].
For `O=C(c1ccc2c(c1)N(Cc1cccc(Cl)c1)C(=O)c1ccccc1S2(=O)=O)N1CCc2ccccc21`, the Potency was inconclusive: 2.51 µM [inhibitor, full curve].
For `COc1cc(Cl)c(C)cc1NC(=O)C1CCCN(c2ncnc3onc(-c4ccc(F)cc4)c23)C1` (centres undefined), the Potency was inconclusive: 39.8 µM [inhibitor, single point].
In the case of `Cc1cc(NC(=O)CCCn2c(C)c3cnn(-c4ccccc4)c(=O)c3c2C)ccc1Br`, the Potency is reported as inconclusive: 39.8 µM [inhibitor, single point].
In the case of `CCOc1ccccc1NC(=O)CN1C(=O)CC(c2ccco2)Sc2ccccc21` (centres undefined), the Potency is reported as inconclusive: 39.8 µM [inhibitor, partial curve, poor fit].
In the case of `CCN(C(=O)CSc1ncc(S(=O)(=O)c2ccc(C)c(Cl)c2)c(=O)[nH]1)c1cccc(C)c1`, the Potency is reported as “inactive”.
In the case of `COc1ccc(-c2nc(CN3CCC(C(=O)NCCCN4CCN(c5ccccc5F)CC4)CC3)c(C)o2)cc1OC`, the Potency is reported as “inactive”.
With `Cc1ccc(-n2ncc(C(=O)NC3CCCC3)c2C2CCN(C(=O)OC(C)(C)C)CC2)c(C)c1` the Potency was inconclusive: 28.2 µM [inhibitor, partial curve, poor fit].
In the case of `CC1=C(C(=O)OCc2ccc(C)cc2)C(c2c(Cl)cccc2Cl)CC(=O)N1` (centres undefined), the Potency is reported as inconclusive: 35.5 µM [inhibitor, single point].
For `Cc1ccc(C)c(NS(=O)(=O)c2ccc3c4c(cccc24)C(=O)N3)c1`, the Potency was inconclusive: 28.2 µM [inhibitor, partial curve, poor fit].
With `COc1cccc(Cn2nnc3c(=O)[nH]c(C4CCCN(C(=O)c5ccc(C)cc5)C4)nc32)c1` (centres undefined) the Potency was inconclusive: 28.2 µM [inhibitor, partial curve, poor fit].
For `CC(C)(C)c1ccc(O)c(O)c1`, the Potency was inconclusive: 20 µM [inhibitor, partial curve, poor fit].
With `COc1cccc(CN(Cc2ccco2)c2cnc(S(C)(=O)=O)nc2C(=O)Nc2cccc(Cl)c2C)c1` the Potency was inconclusive: 39.8 µM [inhibitor, partial curve, poor fit].
For `Cc1ccc(-c2nnc(Nc3cccc(Cl)c3)c3ccccc23)cc1S(=O)(=O)NCC1CCCO1` (centres undefined), the Potency was inconclusive: 22.4 µM [inhibitor, partial curve].
For `Cc1ccc(S(=O)(=O)c2cnc(SCC(=O)Nc3cc(C)cc(C)c3)nc2N)cc1`, the Potency was inconclusive: 25.1 µM [inhibitor, partial curve, poor fit].
For `COC(=O)c1ccccc1NC(=O)Cn1cc(S(=O)(=O)Cc2ccccc2F)c2ccccc21`, the Potency was inconclusive: 17.8 µM [inhibitor, partial curve, poor fit].
For `CCCCc1ccc(-n2nc3cc(C)c(NC(=O)Cc4ccccc4)cc3n2)cc1`, the Potency was “inactive”.
With `C=CC(=O)Nc1cccc(Oc2nc(Nc3ccc(N4CCN(C)CC4)cc3)ncc2Cl)c1` the Potency was “inactive”.
With `O=C(Nc1cc(Cl)cc(Cl)c1)c1ccc(F)c(S(=O)(=O)NC2CCCC2)c1` the Potency was inconclusive: 35.5 µM [inhibitor, single point].
For `Cc1cccc(CN2C(=O)c3ccccc3Sc3ccc(C(=O)N4CCCC4)cc32)c1`, the Potency was inconclusive: 39.8 µM [inhibitor, single point].
With `COCCN1C(=O)c2[nH]nc(-c3ccccc3O)c2C1c1ccc(OCc2ccccc2)c(OC)c1` (centres undefined) the Potency was inconclusive: 35.5 µM [inhibitor, partial curve].
In the case of `Cc1ccc(C(=O)N2CCC(c3c[nH]c4ccccc34)(c3c[nH]c4ccccc34)CC2)cc1`, the Potency is reported as inconclusive: 39.8 µM [inhibitor, single point].
With `Cn1nccc1C(=O)NCc1ccc2c(c1)CCN2C(=O)c1ccc(F)cc1` the Potency was inconclusive: 39.8 µM [inhibitor, single point].
For `COc1ccccc1Nc1cc(C(=O)NCCCN(C)c2ccccc2)c2ccccc2n1`, the Potency was inconclusive: 39.8 µM [inhibitor, single point].
For `CCC(=O)N1c2ccc(S(=O)(=O)NCc3cccc(OC)c3)cc2CC1C` (centres undefined), the Potency was inconclusive: 28.2 µM [inhibitor, single point].
In the case of `Cc1ccc(S(=O)(=O)c2nc(-c3ccco3)oc2SC(C)c2ccccc2)cc1` (centres undefined), the Potency is reported as inconclusive: 22.4 µM [inhibitor, partial curve, poor fit].
With `CCC(Sc1nnc(-c2ccc(OC)cc2)c(-c2ccc(OC)cc2)n1)C(=O)NC1CCCCC1` (centres undefined) the Potency was “inactive”.
In the case of `CC1CCCN(S(=O)(=O)c2ccc(NC(=O)c3nc(SC(C)C)ncc3Cl)cc2)C1` (centres undefined), the Potency is reported as inconclusive: 15.8 µM [inhibitor, partial curve, poor fit].
With `CCCCN(Cc1ccccc1)C(=O)c1oc(=O)c2ccccc2c1-c1ccc(C)cc1` the Potency was inconclusive: 39.8 µM [inhibitor, partial curve, poor fit].
In the case of `COc1ccccc1/C=C/c1nc(C#N)c(N2CCCCCC2)o1`, the Potency is reported as “inactive”.
With `CCCCNS(=O)(=O)c1ccc2nc(NC(=O)c3cccnc3)sc2c1` the Potency was “inactive”.
With `Cc1ccc(-n2ccnc(NCc3ccccc3)c2=O)cc1C` the Potency was inconclusive: 39.8 µM [inhibitor, single point].
For `CCc1ccc(NC(=O)c2ccc(F)c(S(=O)(=O)N3CCC(C)CC3)c2)cc1`, the Potency was active: 4.47 µM.
For `CC(C)OCCCNC(=O)c1ccc2c(=O)n(CCc3ccccc3)c(=O)[nH]c2c1`, the Potency was “inactive”.
In the case of `CCC(C)NC(=O)c1ccc(-n2c(-c3ccccc3)cc3c2CCCC3)cc1` (centres undefined), the Potency is reported as “inactive”.
With `Cc1ccccc1CNC(=O)c1ccc(-c2nc(CS(=O)(=O)c3ccccc3)c(C)o2)cc1` the Potency was inconclusive: 31.6 µM [inhibitor, partial curve, poor fit].
For `CC(=O)c1c(C)oc2ccc(N(C(=O)Oc3ccccc3)S(=O)(=O)c3ccc(C(C)(C)C)cc3)cc12`, the Potency was inconclusive: 5.01 µM [inhibitor, full curve].
With `COc1ccc(C)cc1NC(=O)CN(c1cc(C(F)(F)F)ccc1Cl)S(C)(=O)=O` the Potency was inconclusive: 39.8 µM [inhibitor, single point].
In the case of `COc1cc(NC(=O)c2cc(Cl)c(OC)c(Cl)c2)ccc1NC(=O)c1cc2ccccc2o1`, the Potency is reported as “inactive”.
In the case of `Cc1ccc(CN2CCCn3nc(C(=O)NCCc4ccc(Cl)cc4)cc3C2=O)cc1`, the Potency is reported as inconclusive: 28.2 µM [inhibitor, partial curve, poor fit].
In the case of `O=C(NCC(c1cccnc1)N1CCN(Cc2ccccc2)CC1)C(=O)Nc1ccc(Cl)cc1` (centres undefined), the Potency is reported as inconclusive: 31.6 µM [inhibitor, partial curve, poor fit].
With `Cc1ccc(CSCC(=O)N2CCN(c3ccc(F)cc3)CC2)cc1` the Potency was inconclusive: 28.2 µM [inhibitor, single point].
In the case of `CC(=O)c1cccc(S(=O)(=O)NCCc2csc3nc(-c4ccc(F)cc4)nn23)c1`, the Potency is reported as inconclusive: 25.1 µM [inhibitor, single point].
In the case of `Cc1cccc(N(CC(=O)Nc2ccc(Br)cc2)S(C)(=O)=O)c1C`, the Potency is reported as inconclusive: 35.5 µM [inhibitor, single point].
In the case of `COc1ccc(OC)c(NC(=O)c2c(NCc3ccc(C)o3)sc3c2CCC(C)C3)c1` (centres undefined), the Potency is reported as inconclusive: 35.5 µM [inhibitor, single point].
For `COc1ccc(N2CCN(C3(c4ccccc4)C(=O)c4ccccc4C3=O)CC2)cc1`, the Potency was inconclusive: 17.8 µM [inhibitor, partial curve, poor fit].
